# This is one part of the list. Values come from read counts of a selection and are noisy.
# Target: T1, Drosophila AGO2 (FLAG-tagged, S2-R+ lysate) (UniProt Q9VUQ5)
# T1 sequence: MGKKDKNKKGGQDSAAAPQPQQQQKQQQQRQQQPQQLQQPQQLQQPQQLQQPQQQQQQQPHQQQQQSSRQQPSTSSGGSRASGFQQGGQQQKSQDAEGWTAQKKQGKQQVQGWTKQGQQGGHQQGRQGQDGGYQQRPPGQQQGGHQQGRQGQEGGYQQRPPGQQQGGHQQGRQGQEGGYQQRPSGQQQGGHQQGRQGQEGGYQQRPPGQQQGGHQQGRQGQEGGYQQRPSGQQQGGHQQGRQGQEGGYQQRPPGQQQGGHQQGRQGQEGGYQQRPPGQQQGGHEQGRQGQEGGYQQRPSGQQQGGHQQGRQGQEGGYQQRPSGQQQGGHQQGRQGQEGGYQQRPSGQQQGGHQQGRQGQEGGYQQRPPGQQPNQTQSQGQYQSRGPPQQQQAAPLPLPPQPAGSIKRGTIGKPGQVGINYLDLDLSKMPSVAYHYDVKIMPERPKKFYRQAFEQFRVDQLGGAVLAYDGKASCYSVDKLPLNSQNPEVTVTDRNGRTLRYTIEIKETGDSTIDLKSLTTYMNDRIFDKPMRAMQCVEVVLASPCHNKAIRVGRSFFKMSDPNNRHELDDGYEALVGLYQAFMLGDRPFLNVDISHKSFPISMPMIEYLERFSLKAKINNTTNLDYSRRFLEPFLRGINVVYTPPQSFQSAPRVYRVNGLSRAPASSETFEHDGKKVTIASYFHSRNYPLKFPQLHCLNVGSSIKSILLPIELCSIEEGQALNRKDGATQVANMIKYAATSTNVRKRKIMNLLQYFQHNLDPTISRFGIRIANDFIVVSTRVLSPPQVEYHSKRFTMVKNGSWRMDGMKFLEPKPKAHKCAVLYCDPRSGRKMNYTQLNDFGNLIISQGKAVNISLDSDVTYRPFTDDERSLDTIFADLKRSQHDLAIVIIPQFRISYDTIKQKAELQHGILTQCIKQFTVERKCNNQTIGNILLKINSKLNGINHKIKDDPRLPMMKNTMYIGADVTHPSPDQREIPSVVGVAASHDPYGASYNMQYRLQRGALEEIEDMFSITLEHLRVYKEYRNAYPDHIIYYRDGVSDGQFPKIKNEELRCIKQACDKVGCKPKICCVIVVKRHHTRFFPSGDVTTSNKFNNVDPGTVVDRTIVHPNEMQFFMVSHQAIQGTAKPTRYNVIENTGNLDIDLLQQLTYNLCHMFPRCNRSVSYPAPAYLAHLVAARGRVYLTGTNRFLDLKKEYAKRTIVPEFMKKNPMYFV
# Experiment: AGO2 loading enrichment factor (IP read count / input read count, not library-size normalised) (ratio); higher = more efficient loading into AGO2
# Details: randomized region: 5' 5N of miR-317 loop
# 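Further: Per-sequence enrichment computed with FASTAptamer, counting only reads that carry the expected constant 3′ region.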
row,Sequence,AGO2 loading enrichment factor
1,TTGAGTGAAATGCAAGCAAG,0.508
2,TCAGGTGAAATGCAAGCAAG,0.532
3,AGGACTGAAATGCAAGCAAG,0.647
4,TTTGCTGAAATGCAAGCAAG,1.27
5,GCTGGTGAAATGCAAGCAAG,0.0728
6,TTAATTGAAATGCAAGCAAG,0.438
7,TCAAATGAAATGCAAGCAAG,0.402
8,CATACTGAAATGCAAGCAAG,0.232
9,ACCGATGAAATGCAAGCAAG,0.359
10,CAATCTGAAATGCAAGCAAG,0.388
11,CCTAGTGAAATGCAAGCAAG,0.259
12,CTAAGTGAAATGCAAGCAAG,0.474
13,GGGATTGAAATGCAAGCAAG,1.9
14,AAAGCTGAAATGCAAGCAAG,0.0951
15,ATAACTGAAATGCAAGCAAG,0.471
16,ATGATTGAAATGCAAGCAAG,0.446
17,TATAGTGAAATGCAAGCAAG,0.384
18,GAAACTGAAATGCAAGCAAG,0.404
19,GCGTGTGAAATGCAAGCAAG,0.0387
20,GACTGTGAAATGCAAGCAAG,0.144
21,CATTATGAAATGCAAGCAAG,0.245
22,CCGCTTGAAATGCAAGCAAG,0.274
23,GAGAATGAAATGCAAGCAAG,0.504

row,Sequence,AGO2 loading enrichment factor
1,ATTAGTGAAATGCAAGCAAG,0.408
2,ACACGTGAAATGCAAGCAAG,0.377
3,TTTCCTGAAATGCAAGCAAG,0.786
4,ATGGGTGAAATGCAAGCAAG,2
5,GTAAATGAAATGCAAGCAAG,0.491
6,CCTACTGAAATGCAAGCAAG,0.3
7,GGATGTGAAATGCAAGCAAG,0.718
8,GGTTGTGAAATGCAAGCAAG,0.171
9,ACACCTGAAATGCAAGCAAG,0.321
10,AATAGTGAAATGCAAGCAAG,0.352
11,GATAATGAAATGCAAGCAAG,0.421
12,ACTCTTGAAATGCAAGCAAG,0.137
13,ATAAGTGAAATGCAAGCAAG,0.471
14,CATATTGAAATGCAAGCAAG,0.265
15,TGACGTGAAATGCAAGCAAG,0.357
16,CCGGTTGAAATGCAAGCAAG,0.482
17,CCGTGTGAAATGCAAGCAAG,0.439
18,CGTCGTGAAATGCAAGCAAG,0.638
19,GTTGTTGAAATGCAAGCAAG,0.573
20,TCCATTGAAATGCAAGCAAG,0.477
21,TAGAATGAAATGCAAGCAAG,0.363
22,TGAGCTGAAATGCAAGCAAG,0.138
23,ATCCCTGAAATGCAAGCAAG,0.462

row,Sequence,AGO2 loading enrichment factor
1,TACTGTGAAATGCAAGCAAG,0.261
2,GCACATGAAATGCAAGCAAG,0.208
3,CGTCCTGAAATGCAAGCAAG,0.329
4,CCAAGTGAAATGCAAGCAAG,0.411
5,AGTAGTGAAATGCAAGCAAG,0.353
6,TGCAGTGAAATGCAAGCAAG,0.0708
7,TCGTGTGAAATGCAAGCAAG,0.526
8,ATGAATGAAATGCAAGCAAG,0.458
9,CGCAATGAAATGCAAGCAAG,0.237
10,GCACCTGAAATGCAAGCAAG,0.145
11,GTTTATGAAATGCAAGCAAG,0.338
12,GTCCATGAAATGCAAGCAAG,0.791
13,GGCAGTGAAATGCAAGCAAG,0.256
14,ACACTTGAAATGCAAGCAAG,0.0999
15,CGTACTGAAATGCAAGCAAG,0.356
16,GGCCGTGAAATGCAAGCAAG,1.2
17,ACTCGTGAAATGCAAGCAAG,0.35
18,TATTCTGAAATGCAAGCAAG,0.325
19,GCCACTGAAATGCAAGCAAG,0.255
20,CTTCCTGAAATGCAAGCAAG,0.153
21,CTTTGTGAAATGCAAGCAAG,0.345
22,GGCTCTGAAATGCAAGCAAG,0.463
23,CGAACTGAAATGCAAGCAAG,0.427

row,Sequence,AGO2 loading enrichment factor
1,GTGTATGAAATGCAAGCAAG,0.349
2,TGGACTGAAATGCAAGCAAG,0.581
3,TTTCATGAAATGCAAGCAAG,0.405
4,GACTCTGAAATGCAAGCAAG,0.354
5,AATGATGAAATGCAAGCAAG,0.361
6,ACTTGTGAAATGCAAGCAAG,0.111
7,TCCCTTGAAATGCAAGCAAG,0.415
8,GATGCTGAAATGCAAGCAAG,0.124
9,AACGCTGAAATGCAAGCAAG,0.0998
10,GAAGATGAAATGCAAGCAAG,0.618
11,CTCATTGAAATGCAAGCAAG,0.564
12,AATTATGAAATGCAAGCAAG,0.406
13,TGTTCTGAAATGCAAGCAAG,0.261
14,GTGAATGAAATGCAAGCAAG,0.509
15,CTCGCTGAAATGCAAGCAAG,0.0286
16,GCTATTGAAATGCAAGCAAG,0.263
17,CTCTGTGAAATGCAAGCAAG,0.313
18,CCTTATGAAATGCAAGCAAG,0.308
19,TGCTGTGAAATGCAAGCAAG,0.116
20,GACCTTGAAATGCAAGCAAG,0.152

# Source: the supplement of paper PMC6451100
